This is an account of results in PubChem BioAssay AID2060510 (Molecular Pharmacology Branch, DTP, NCI, 2025).

This assay has as its system 439559-082-T-J2-PDC spheroids viability. The assay can be described thus: Anticancer human tumor 439559-082-T-J2-PDC patient-derived colon adenocarcinoma cell line growth inhibition [GQUAD]. The note with it: stronger effect = lower value. The text has this: DNA G-quadruplex Stabilizer Agents in Combinations in Complex Spheroids
A high-throughput screen of multi-cell type tumor spheroids was designed to identify active combinations of DNA G-quadruplex stabilizer agents and targeted small molecules. Complex spheroids include a stromal component modeled by human endothelial cells (HUVEC) and fibroblasts modeled by human mesenchymal stem cells (MSCs). The concentration ranges selected for each drug and investigational agent were based upon clinically achievable concentrations if the clinical Cmax of the agent was known.
Compounds. The drugs and investigational agents: pidnarulex (CX-5461; NSC782164), APTO-253 (NSC789042), BRACO-19 (NSC847499), peposertib (NSC802822), ceralasertib (NSC780249), elimusertib (NSC800525), camonsertib (NSC841442), AZD-1390 (NSC803789), olaparib (NSC753686), talazoparib (NSC767125), ART-558 (NSC835418), sotorasib (NSC818433), MRTX-1133 (NSC836407), SN-38 (NSC673596), topotecan (NSC609699), etoposide (NSC141540), doxorubicin (NSC123127), gemcitabine (NSC613327), 5-fluorouracil (NSC19893), paclitaxel (NSC125973), vemurafenib (NSC761431), panobinostat (NSC761190), R-306465 (JNJ-16241199; NSC773264), adavosertib (NSC754352), TP-3654 (NSC805149), carboplatin (NSC241240), KSQ-4279 (NSC840948), and staurosporine (NSC755774) were obtained from the National Cancer Institute (NCI) Developmental Therapeutics Program Chemical Repository (34). The FDA-approved anticancer drug set is available from the NCI Developmental Therapeutics Program. […] The stock solutions were prepared in dimethyl sulfoxide (DMSO, Sigma-Aldrich, St. Louis, MO, cat. D2650) at 800-fold the tested concentration and stored at -70 degrees C prior to their use. All drugs and investigational agents were tested over a range starting from a high concentration at or near the clinical Cmax and decreasing in half-log increments. If the clinical Cmax for an agent had not been determined, the highest concentration tested was 10 microM.
2.3 Cell Culture. All cells were maintained in an incubator at 37 degrees C and 5% CO2 with 95% humidity. The PDC lines were cultured according to standard operating procedures established by the NCI PDMR. All PDCs were thawed and cultured in Matrigel-coated flasks prepared with a working solution of 1X Ham's F-12 nutrient mix, without supplementation (Invitrogen, cat. 11765054), 100 U/mL penicillin-streptomycin (Invitrogen, cat. 15140122), and 2.5% Matrigel (Corning Inc., cat. 354248) for the first three passages. The 857933-349-R-J2-PDC line was cultured in 6C/Colon 1B media, which includes advanced DMEM/F-12 (Thermo Fisher Scientific, cat. 12634028), 10 mM HEPES (Thermo Fisher Scientific, cat. 15630080), 1X GlutaMAX supplement (Thermo Fisher Scientific, cat. 35050061), 0.1 mg/mL primocin (InvivoGen, cat. ant-pm-2), 10% defined fetal bovine serum, heat inactivated (HyClone Laboratories Inc., cat. SH30070.03HI), 50% L-WRN conditioned media (ATCC, cat. CRL-3276), 1.25 mM N-Acetyl-L-cysteine (Sigma-Aldrich, cat. A9165), 10 mM nicotinamide (Sigma-Aldrich, cat. N0636), 1X B-27 supplement (Thermo Fisher Scientific, cat. 17504044), 1X N-2 supplement (Thermo Fisher Scientific, cat. 17502048), 10 microM Y-27632 dihydrochloride (Tocris Bioscience, cat. 1254), and 50 ng/mL human EGF recombinant protein (Thermo Fisher Scientific, cat. PHG0311). The 485176-168-R4-J1-PDC line was cultured in Panc media, which includes all 6C/Colon 1B media components plus 100 ng/mL human FGF-10 (Thermo Fisher Scientific, cat. 100-26), 500 nM SB-431542 (Selleckchem, cat. S1067), and gastrin (Tocris, cat. 3006).
[…]

Each structure is given as a SMILES string. Some entries of the source have several records that differ or are many. This list holds those alone. The source may hold further records. The values listed for one entry repeat one measurement in other runs, samples, wells, individuals or studies. Additions like (4×) say how often a value occurs here.

As a reminder, the viability, T/C is the ratio of treated to control.
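Note: spheroids exposed to the agents for 7 days before readout; percent of luminescence signal in DMSO vehicle wells taken as 100% viability.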

As to `O=C(NO)c1cnc(N2CCN(S(=O)(=O)c3ccc4ccccc4c3)CC2)nc1`, the viability, T/C is reported as 12.6%, 59.9%, 1.75% (compound alone 1 µM); 0.27%, 40.1%, 0.31% (compound alone 3.16 µM); 0.28%, 31%, 0.3% (compound alone 10 µM).
As for `CN(C)c1ccc(Nc2c3ccc(NC(=O)CCN4CCCC4)cc3nc3cc(NC(=O)CCN4CCCC4)ccc23)cc1`, the viability, T/C (compound alone 1 µM) was 91.1, 89, 117, 103 (2×), 107, 101, 100, 105, 102, 97.2, 98.1%.
In the case of `CC(=O)O[C@H]1C(=O)[C@@]2(C)[C@H]([C@H](OC(=O)c3ccccc3)[C@]3(O)C[C@H](OC(=O)[C@H](O)[C@@H](NC(=O)c4ccccc4)c4ccccc4)C(C)=C1C3(C)C)[C@]1(OC(C)=O)CO[C@@H]1C[C@@H]2O`, the viability, T/C (compound alone 1 µM) was 74.4%, 2.22%, 59.1%; the viability, T/C (compound alone 3.16 µM) is reported as 43.8%, 0.34%, 45.7%; the viability, T/C (compound alone 10 µM) is reported as 32.7%, 0.31%, 30.6%.
